Data taken from PMC9885069 (Scientific Reports, 2023).

From the text: […] . NPCs were utilized in this initial screen for two reasons; (i) the need to employ a platform composed of CNS cells, and (ii) the higher susceptibility of NPCs to HSV-1 when compared to neurons. Human NPCs were derived from iPSCs as previously described. NPCs were infected with an HSV-1 construct (DualF) expressing enhanced green fluorescent protein (EGFP) and monomeric red fluorescent protein (RFP) under the control of the viral promoters ICP0 and Glycoprotein C, respectively, at a multiplicity of infection (MOI) of 0.1, as detailed in the Experimental section B. The expression of the fluorescent reporter genes EGFP and RFP were considered as proxies of viral gene expression. […] […] . 9001: 424-fold).

## COc1ccc2c(c1)[C@H]1C[C@H](O)[C@@H](O)[C@@H](O)[C@@H]1NC2=O [Compound 5, (2S,3R,4S,4aR,10bR)-2,3,4-Trihydroxy-9-methoxy-1,3,4,4a,5,10b-hexahydrophenanthridin-6(2H)-one]
  solubility in DMSO: incompletely soluble in DMSO
